# Test results taken from the BET-seq Pho4 binding data (Le et al. 2018).
# The other results are listed elsewhere or left out. These are noisy estimates, calculated here from bound and input reads.
# Target: T1, Pho4 (S. cerevisiae) (UniProt P07270)
# T1 sequence: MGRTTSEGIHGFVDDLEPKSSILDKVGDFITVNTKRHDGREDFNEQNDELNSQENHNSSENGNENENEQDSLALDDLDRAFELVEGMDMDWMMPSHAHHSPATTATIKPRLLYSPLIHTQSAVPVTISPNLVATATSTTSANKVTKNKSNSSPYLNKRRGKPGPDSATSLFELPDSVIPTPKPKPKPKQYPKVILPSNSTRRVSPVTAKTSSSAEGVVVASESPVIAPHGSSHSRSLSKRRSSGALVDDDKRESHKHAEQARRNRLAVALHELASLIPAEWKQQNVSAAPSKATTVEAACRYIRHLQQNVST
# Assay: relative binding free energy (BET-seq); higher = weaker binding
# Conditions: reference: library average
row,Sequence,relative binding free energy
1,GTGTTCACGTGGTCGT,0.17 kcal/mol
2,GCATGCACGTGTGTAT,0.1 kcal/mol
3,TGATTCACGTGTCAGG,0.31 kcal/mol
4,GCCTTCACGTGTGTGT,0.32 kcal/mol
5,AGGCTCACGTGGGTAA,0.03 kcal/mol
6,TGTTACACGTGAAAAT,0.42 kcal/mol
7,ATGATCACGTGATGTC,0.4 kcal/mol
8,AGGAACACGTGTGTTG,0.01 kcal/mol
9,TTTGCCACGTGGCGGT,-0.13 kcal/mol
10,TTAAGCACGTGCAGGG,-0.13 kcal/mol
11,TTTGACACGTGGAAGA,0.05 kcal/mol
12,TCTAGCACGTGGTTGG,-0.16 kcal/mol
13,GTCTGCACGTGTGTGT,0.03 kcal/mol
14,GATGACACGTGTGCGT,0.24 kcal/mol
15,GTTTGCACGTGGAGGT,0.05 kcal/mol
16,ATGTTCACGTGTATTG,0.23 kcal/mol
17,GTAGGCACGTGAAAGA,0.21 kcal/mol
18,GTCTTCACGTGGATGG,0.26 kcal/mol
19,AAGTACACGTGGAGGT,0.19 kcal/mol
20,ATGGACACGTGGCTAT,-0.02 kcal/mol
21,AGGGTCACGTGGAGGG,0.11 kcal/mol
22,AATTTCACGTGGTGAC,0.26 kcal/mol
23,TTTGCCACGTGTTGAA,0.06 kcal/mol
24,GGTCGCACGTGGGTGG,-0.14 kcal/mol
25,ATGAACACGTGTCGGG,0.12 kcal/mol

row,Sequence,relative binding free energy
1,TGAGTCACGTGATGGT,0.17 kcal/mol
2,CAGATCACGTGGCGGG,0.07 kcal/mol
3,ATGGACACGTGTATGT,0.15 kcal/mol
4,AATGTCACGTGTAGAG,0.19 kcal/mol
5,GATGGCACGTGTAAAG,0.08 kcal/mol
6,TTGGCCACGTGGAGGA,0 kcal/mol
7,TGTTTCACGTGAAAGC,0.37 kcal/mol
8,AAGGTCACGTGTAGAG,0.09 kcal/mol
9,CGGTACACGTGTTAAG,0.15 kcal/mol
10,TAAGACACGTGTTTTT,0.13 kcal/mol
11,AAGTACACGTGTGGTC,0.21 kcal/mol
12,AATGTCACGTGTTCTT,0.19 kcal/mol
13,GTGAACACGTGTGAGG,0.09 kcal/mol
14,CTCGTCACGTGGGAGG,0.1 kcal/mol
15,TATCGCACGTGTTGTT,-0.01 kcal/mol
16,ATTGACACGTGTGGCA,0.08 kcal/mol
17,CGTTTCACGTGAGATG,0.43 kcal/mol
18,CGGGTCACGTGGGTGA,-0.05 kcal/mol
19,GGCGGCACGTGGCGGC,0.01 kcal/mol
20,TGGGGCACGTGGGCAA,-0.21 kcal/mol
21,TGGCACACGTGGGCAT,0.09 kcal/mol
22,TGAGGCACGTGAACTG,0.11 kcal/mol
23,GGGTACACGTGTCATG,0 kcal/mol
24,GTGTGCACGTGGATGC,-0.05 kcal/mol
25,TTATTCACGTGCTAGG,0.2 kcal/mol

row,Sequence,relative binding free energy
1,AGTGCCACGTGAGGGT,0.15 kcal/mol
2,AAGGTCACGTGTATAG,0.02 kcal/mol
3,AGGCTCACGTGTGCTG,0.23 kcal/mol
4,GGTATCACGTGTAGCG,0.16 kcal/mol
5,GGGGGCACGTGAGGCC,-0.07 kcal/mol
6,ACGTGCACGTGCTGGT,-0.09 kcal/mol
7,GGGTGCACGTGGATTT,0.15 kcal/mol
8,TGGGCCACGTGTTAAG,-0.05 kcal/mol
9,TGTAGCACGTGTTGCA,-0.18 kcal/mol
10,TGGGTCACGTGGGAGG,0.07 kcal/mol
11,TAACGCACGTGATTGG,0.06 kcal/mol
12,TGAGACACGTGCGTTA,0.07 kcal/mol
13,GGACTCACGTGTTTTG,0.2 kcal/mol
14,AGGTTCACGTGTGCAA,0.32 kcal/mol
15,GGGACCACGTGATTGT,0.16 kcal/mol
16,TGCAACACGTGGTTGG,-0.16 kcal/mol
17,AGTTACACGTGAGTTT,0.31 kcal/mol
18,TTTGACACGTGTCGTG,0.06 kcal/mol
19,TTTGACACGTGATAGT,-0.02 kcal/mol
20,ATATTCACGTGAGCGG,0.31 kcal/mol
21,CTTAGCACGTGGCGGT,-0.14 kcal/mol
22,TGAGACACGTGGCGTA,-0.12 kcal/mol
23,CGAGGCACGTGTGGGT,-0.08 kcal/mol
24,CGAGTCACGTGGTGGC,-0.03 kcal/mol
25,GCGGGCACGTGTAAAG,0.16 kcal/mol

row,Sequence,relative binding free energy
1,GGGGTCACGTGTAGAC,0.17 kcal/mol
2,GGACGCACGTGGGTGG,-0.22 kcal/mol
3,TTCTGCACGTGAATGT,0.31 kcal/mol
4,CGTTGCACGTGGGAGT,0 kcal/mol
5,TGTTACACGTGCAGTA,0.06 kcal/mol
6,GATAGCACGTGCGAGG,0.01 kcal/mol
7,AGGGTCACGTGTAGAG,0.07 kcal/mol
8,GTTAGCACGTGAGTTA,0.22 kcal/mol
9,GAGTGCACGTGTGTGC,0.01 kcal/mol
10,GCGGACACGTGGGTAT,0.08 kcal/mol
11,TAATGCACGTGGGAGG,-0.06 kcal/mol
12,TGATACACGTGGGGTG,-0.11 kcal/mol
13,AAGTTCACGTGGTATA,0.39 kcal/mol
14,AGGCTCACGTGGTTAT,0.13 kcal/mol
15,GCGGTCACGTGGGATG,0.14 kcal/mol
16,TATTTCACGTGCGTCA,0.32 kcal/mol
17,GGGAGCACGTGACGTG,0.21 kcal/mol
18,ATTGTCACGTGCGGAT,0.16 kcal/mol
19,TGTAGCACGTGGTTTG,-0.09 kcal/mol
20,TGAGGCACGTGCTATG,-0.24 kcal/mol
21,AAATACACGTGTGTGT,0.11 kcal/mol
22,TCGTGCACGTGTTCGT,-0.09 kcal/mol
23,AATTACACGTGTAGAG,0.14 kcal/mol
24,TTTAACACGTGGTAGA,-0.11 kcal/mol
25,TGGGCCACGTGCGTTA,-0.1 kcal/mol

row,Sequence,relative binding free energy
1,AAAATCACGTGTTGAG,0.23 kcal/mol
2,GCGTTCACGTGATTGT,0.41 kcal/mol
3,GCGTTCACGTGTGAGG,0.29 kcal/mol
4,TAACTCACGTGGGGGA,0.06 kcal/mol
5,AGAGGCACGTGAGGGT,0.12 kcal/mol
6,TTGGTCACGTGTGTCG,0.16 kcal/mol
7,GATTGCACGTGGATAT,0.08 kcal/mol
8,GCGAACACGTGTTGGG,0.12 kcal/mol
9,TAGAGCACGTGTTATA,-0.1 kcal/mol
10,ATAATCACGTGTTGGC,0.15 kcal/mol
11,GCGGACACGTGTTAGG,0.14 kcal/mol
12,AGGGTCACGTGCGTCA,0.09 kcal/mol
13,TGCTTCACGTGTTGCT,0.04 kcal/mol
14,TTGAGCACGTGGCCGG,-0.19 kcal/mol
15,TCGTTCACGTGTTCTT,0.28 kcal/mol
16,TACGTCACGTGGGTGG,-0.17 kcal/mol
17,GGTATCACGTGGTGGT,0.12 kcal/mol
18,TAGGTCACGTGGCAAT,0.11 kcal/mol
19,GAGTGCACGTGCGGGA,0.02 kcal/mol
20,TTTTCCACGTGTTTTG,0.18 kcal/mol
21,GAGGGCACGTGACAGG,-0.01 kcal/mol
22,CAGGGCACGTGAGGTG,0.13 kcal/mol
23,TGAGTCACGTGGTACG,0.04 kcal/mol
24,CGGGTCACGTGCATGG,-0.01 kcal/mol
25,GGGGCCACGTGATGGC,0.1 kcal/mol

row,Sequence,relative binding free energy
1,TTTCTCACGTGTGGTA,0.24 kcal/mol
2,GACGGCACGTGAGTTT,0.38 kcal/mol
3,GTATACACGTGGAGGG,0.1 kcal/mol
4,TAAGTCACGTGTGGTA,0.15 kcal/mol
5,CTGTTCACGTGCGTTT,0.1 kcal/mol
6,GTCTGCACGTGGTCGG,0 kcal/mol
7,TGTCTCACGTGAGTGG,0.37 kcal/mol
8,ACTATCACGTGGGGAT,0 kcal/mol
9,ACTGGCACGTGGAGGG,-0.25 kcal/mol
10,ATATTCACGTGCGGTT,0.24 kcal/mol
11,AGGGGCACGTGCATGA,-0.13 kcal/mol
12,GCAGTCACGTGTTGTA,0.07 kcal/mol
13,ATAATCACGTGGATTA,0.29 kcal/mol
14,TTCAGCACGTGAATGG,0.29 kcal/mol
15,TCTTTCACGTGTGAGG,0.2 kcal/mol
16,AGTGACACGTGTGAGG,-0.03 kcal/mol
17,CTTTTCACGTGAAGTT,0.29 kcal/mol
18,AATGGCACGTGATGGC,-0.07 kcal/mol
19,TCGGACACGTGGGTCG,-0.06 kcal/mol
20,AATATCACGTGTTTGG,0.1 kcal/mol
21,CTTGGCACGTGGGATT,-0.17 kcal/mol
